# Data taken from PubChem BioAssay (NCATS).
# Values joined by “and” are separate entries in the source; they are usually repeats but may differ in a detail not shown here. Equal values may be shown once. The inconclusive results got no clear call from the source; some entries with a clear call stand among them for comparison. A potency beside an inconclusive call is a rough fit, not a confirmed value. Active and inactive are the calls of the source. Calls come from the whole dose curve; as a rule, active = well fitted inhibition curve with a large enough effect; inconclusive = small, poorly fitted or top-dose-only effect; inactive = flat fitted curve, though single readings scatter.
# Assay: qHTS for Inhibitors of Plasmodium falciparum (7G8) proliferation (AID 504316); note: nearly all actives have a fitted effect of over 65% in size
# Conditions: P. falciparum 7G8 in erythrocytes, SYBR Green DNA, 72 h; series mostly up to 6.7 µM
# Source text: Plasmodium falciparum is a virulent malarial parasite that kills 1-2 million people worldwide each year. Malaria not only inflicts tremendous suffering and morbidity on the human population, but has dramatically influenced the course of civilization with profound sociological and economic implications (Shah, S. 2010). Transmitted by mosquitoes, the sporozoite form of the parasite enters the blood stream to infect hepatocytes, where they become merozoites that infect red blood cells (erythrocytes). Within erythrocytes, merozoites begin a […] cycle of growth and division, after which the parasite is released to infect new red blood cells. Gametocytes, which form within erythrocytes as well, circulate in the bloodstream and are ingested by the mosquito, thereby completing the life cycle (see CDC website). To profile malarial lines for differential chemical responses and to identify inhibitors of malarial growth, an assay that measures P. falciparum growth and replication within erythrocytes was employed. This assay uses a DNA binding fluorescent dye (SYBR Green) to detect parasite DNA following cell lysis. Because mature erythrocytes lack DNA, only Plasmodium-derived DNA is detected. The P. falciparum line cp250, derived from a malarial isolate from Cambodia, (Mu, J., et al. 2010) was added to the panel of lines, Dd2, HB3, 7G8 and GB4 in this study. Laboratory of Assay Development and Screening Technology [ADST] and NIH Chemical Genomics Center [NCGC] Boston University, Chemistry Department, Center for Chemical Methodology and Library Development [CMLD-BU] NIH National Institute of Allergy and Infectious Diseases [NIAID]
# ADST Assay Protocol Summary: The 1536-well SYBR Green viability assay was based on the method of Bennett et al (2004) and described previously in 1536-well format (Yuan J., et al. 2009). For screening 3 ul culture medium was dispensed into 1536 well black clear bottom plates (Aurora Biotechnologies) using a Multidrop Combi (Thermo Fisher Scientific Inc.), 23 nL compounds in DMSO were added by a pin transfer (Cleveland, P.H. and Koutz, P.J, 2005) using a pin tool-based delivery system (Kalypsys), and 5 ul of erythrocytes infected with P. falciparum one of five lines (cp250, Dd2, HB3, 7G8 or GB4, 0.3% parasitemia, 2.5% hematocrit final concentration) were added. The plates were incubated at 37C in a humidified incubator in 5% CO2 for 72 h, and 2 ul lysis buffer (20 mM Tris HCl, 10 mM EDTA, 0.16% saponin, 1.6% triton X, 10X SYBR Green I (supplied as 10,000X final concentration by Invitrogen) was added to each well. The plates were mixed for 25 sec with gentle shaking and incubated overnight at room temperature in the dark. The following morning, fluorescence intensity at 485(14) nm excitation and 535(25) nm emission wavelengths was measured on an EnVision (Perkin Elmer) plate reader. Plate reads were normalized relative to the control inhibitor (0.29 uM artemisinin) and vehicle (DMSO) wells present on each plate and then corrected by an algorithm using vehicle-only control plates at the beginning and end of the compound plate stack. References Shah, S. (2010). The Fever: how malaria has ruled humankind for 500,000 years. New York, Sarah Crichton Books. CDC web site, http://www.cdc.gov/malaria/about/biology/index.html Mu, J., Myers, R.A., Jiang, H., Liu, S., Ricklefs, S., Waisberg, M., Chotivanich, K., Wilairatana, P., Krudsood, S., White, N.J., et Plasmodium falciparum genome-wide scans for positive selection, recombination hot spots and resistance to antimalarial drugs Nature Genetics 2010, 42, pp 268-271 Bennett TN, Paguio, M., Gligorijevic, B., Seudieu, C., Kosar, A. D., Davidson, E., and Roepe, P. D. Novel, rapid, and inexpensive cell-based quantification of antimalarial drug efficacy Antimicrobial Agents Chemother. 2004, 48(5): pp 1807-10 Yuan J, Johnson RL, Huang RL, Wichterman J, Jiang HY, Hayton K, Fidock DA, Wellems TE, Inglese J, Austin CP, Su XZ. […]
# Potency is the fitted concentration of half-maximal effect; tags give direction and shape of the fitted curve.
row,SMILES,Potency
1,COc1ccc(-c2ccc3c(n2)CCCN3CC(O)CN2CCCc3nc(C)c(C)cc32)cc1 (stereo not given),"inconclusive: 1.69 µM [inhibitor, partial curve, poor fit]"
2,CC(C)CON=C1C[C@@H](O)[C@@H](O)[C@@H]2[C@H]3C(=O)N(Cc4ccc5c(c4)OCO5)C(=O)[C@@H]3CC[C@H]12,inactive
3,C[C@@H]1C=CCCO[C@]12C(=O)N(Cc1ccccc1C(F)(F)F)c1cccc(Br)c12,"inconclusive: 0.478 µM [inhibitor, single point]"
4,COC(=O)CCCC1=CC2=CC(=O)C(C)(OC(=O)c3cccs3)C(=O)C2=CN1CCN1CCOCC1 (stereo not given),inactive
5,COC1=C[C@H](C(=O)NCc2ccc(Br)cc2)C(C)C(c2ccccc2)CC1=O (stereo not given in full),inactive
6,CCN1C(=NCC(C)C)NC(c2cccc(F)c2)C(C(=O)OC)=C1C (stereo not given),"inconclusive: 1.9 µM [inhibitor, single point]"
7,CC#CCN1c2ccccc2[C@]23C[C@@H](C(=O)OC)N(S(=O)(=O)c4ccc(C)cc4)C2=NC(C(=O)OC)=C(C(=O)OC)[C@H]13,"inconclusive: 2.13 µM [inhibitor, partial curve, poor fit]"
8,COc1ccc(-c2cnnc(CCCn3ccnc3-c3ccccc3)n2)cc1,"inconclusive: 2.13 µM [inhibitor, single point]"
9,COc1ccc(N2C=C3C(=O)C(C)(OC(=O)C4CCCC4)C(=O)C=C3C=C2c2ccsc2)cc1 (stereo not given),"inconclusive: 107 nM [inhibitor, partial curve, poor fit] and inconclusive: 4.26 µM [inhibitor, single point]"
10,C[C@H]1C[C@@H](C)O[C@@]2(C1)C(=O)Nc1ccccc12,"inconclusive: 0.0015 µM [inhibitor, full curve, poor fit]"
11,C=CCCC1(C(=O)c2ccccc2)C(=O)C(CC=C(C)C)=C(OC)C(CC=C(C)C)(CCC=C(C)C)C1=O (stereo not given),active: 1.51 µM
12,C/C=C/C1=Cc2ccccc2C(CC(=O)OC)N1C(=O)OC (stereo not given),"inconclusive: 1.69 µM [inhibitor, partial curve]"
13,C[C@H]1Cc2c(-c3ccccc3)nc3c(c2CO1)CN(C(=O)c1cc(I)ccc1F)CC3,"inconclusive: 4.26 µM [inhibitor, partial curve, poor fit]"
14,O=C1[C@H]2[C@@H]3[C@@H](O)[C@H](O)CC(=NOCc4ccccc4)[C@@H]3CC[C@H]2C(=O)N1Cc1ccc2c(c1)OCO2,"inconclusive: 3.38 µM [inhibitor, single point]"
15,CCOC(=O)CN1C(=O)[C@]2(O[C@H](COc3ccccc3)CC3=CCCC32)c2c(Br)cccc21 (stereo not given in full),"inconclusive: 3.01 µM [inhibitor, single point]"
16,Cc1ccc(S(=O)(=O)N2CCc3nc(COc4ccccc4)c4c(c3C2)CO[C@@H](C)C4)cc1,"inconclusive: 1.69 µM [inhibitor, partial curve]"
17,COC(=O)N[C@@H](C=Cc1ccccc1)C[N+](=O)[O-],"inconclusive: 4.26 µM [inhibitor, single point]"
18,O=C1C2=C(C(=O)c3ccccc31)[C@H]1O[C@](c3ccsc3)(Cc3ccccc31)O2,active: 1.9 µM
19,c1ccc(-c2nc(-c3cccs3)c(NC3CCCCC3)o2)cc1,"inconclusive: 2.69 µM [inhibitor, single point]"
20,C[C@H]1CC[C@H]2C(=O)N(Cc3ccccc3)C[C@@H](O)CN2[C@H]1c1cccc(Br)c1,"inconclusive: 1.51 µM [inhibitor, partial curve]"

row,SMILES,Potency
1,CC1(OC(=O)CCc2ccccc2)C(=O)C=C2C=C(c3ccc(C#N)cc3)N(CCc3c[nH]c4ccccc34)C=C2C1=O (stereo not given),"inconclusive: 4.26 µM [inhibitor, single point]"
2,COC1=CC2C(=O)C(C1=O)[C@H](c1ccccc1)[C@H]2C (stereo not given in full),inactive
3,CCN1C(=NCc2cccc(C(F)(F)F)c2)NC(c2ccccc2)C(C(=O)OC)=C1C (stereo not given),"inconclusive: 3.01 µM [inhibitor, single point]"
4,COc1cccc([C@@H](NC(=O)C(F)(F)F)[C@@H]2CCCC=C2c2ccccc2)c1,"inconclusive: 0.379 µM [inhibitor, single point]"
5,C=CCNC(=O)N1CCc2nc(-c3ccccc3)c3c(c2C1)CO[C@@H](C)C3,"inconclusive: 1.51 µM [inhibitor, partial curve]"
6,COC(=O)CCCC1=CC2=C(c3ccccc3)C(=O)C(C)(OC(=O)C3CCCC3)C(=O)C2=CN1CCCOC(C)C (stereo not given),"inconclusive: 2.13 µM [inhibitor, partial curve, poor fit]"
7,C[C@H]1CC[C@H]2C(=O)O[C@H](CO)CN2[C@H]1c1ccc(Br)cc1,inactive
8,C=CCN1c2ccccc2[C@]23CCC(=O)N(CCc4ccccn4)C2=NC(C(=O)OC)=C(C(=O)OC)[C@H]13,"inconclusive: 1.51 µM [inhibitor, partial curve]"
9,CC(CCN1CCCCc2nc(C)c(C)cc21)=NO[C@H](C)CN1CCCc2nc(C)c(C)cc21,"inconclusive: 1.69 µM [inhibitor, single point]"
10,Cc1cc2c(nc1C)CCCN2CC(O)CN1CCCc2nc(-c3ccc(Br)cc3)ccc21 (stereo not given),inactive
11,CC1(C)CC(=O)C2=C(C1)O[C@@]1(CCCCN3C(=O)c4ccccc4C3=O)Cc3c(ccc4ccccc34)[C@H]2O1,active: 1.51 µM
12,COC(=O)[C@H](COC(C)(C)C)NC(=O)O[C@@H]1C(=O)c2cc(OC)ccc2O[C@H]1c1cccc(OC)c1,"inconclusive: 1.51 µM [inhibitor, single point]"
13,COC(=O)[C@@H](NC(=O)N1CCc2nc(COc3ccccc3)c3c(c2C1)CO[C@@H](C)C3)C(C)C,active: 1.69 µM
14,C#CCCCON=C1C[C@@H](O)[C@@H](O)[C@@H]2[C@H]3C(=O)N(C(C)(C)C)C(=O)[C@@H]3CC[C@H]12,"inconclusive: 4.26 µM [inhibitor, single point]"
15,CC1(OC(=O)C2CCCC2)C(=O)C=C2C=C(c3ccsc3)N(Cc3ccccc3)C=C2C1=O (stereo not given),"inconclusive: 1.9 µM [inhibitor, single point]"
16,COC(=O)C1=C(C(=O)OC)[C@@H]2N(Cc3ccccc3)c3ccccc3[C@@]23CCC(=O)N(CC2CC2)C3=N1,"inconclusive: 2.13 µM [inhibitor, single point]"
17,CCOC(=O)NN=C1C[C@@H](O)[C@@H](O)[C@@H]2[C@H]3C(=O)N(c4cccc(Oc5ccccc5)c4)C(=O)[C@@H]3CC[C@@H]12,inactive
18,CCOC(=O)OC[C@H]1O[C@H](c2ccc(C(C)=O)cc2)C=C[C@H]1Oc1ccc(-c2ccccc2)cc1,active: 1.51 µM
19,CC(C)[C@@H](OCc1ccccc1)[C@H](C)C=NOC[C@@H](O)COCc1ccco1,inactive
20,COc1ccc(NC(=O)N2CCc3nc(-c4ccc(OC)cc4C)c4c(c3C2)CO[C@@H](c2ccccc2)C4)cc1,"inconclusive: 1.9 µM [inhibitor, single point] and inconclusive: 2.13 µM [inhibitor, single point]"
